# The other results are listed elsewhere or left out.
# B1: ZG16p (Homo sapiens), O60844 (protein)
# chain: ARSSSYSGEYGGGGGKRFSHSGNQLDGPITALRVRVNTYYIVGLQVRYGKVWSDYVGGRNGDLEEIFLHPGESVIQVSGKYKWYLKKLLFVTDKGRYLSFGKDSGTSFNAVPLHPNTVLRFISGRSGSLIDAIGLHWDVYPSSCSRC
# Legend:
# Assay in all cases: glycan array binding signal (z-score within array); higher = stronger binding
# Settings in all cases: glycan notation: IUPAC condensed, linker removed
# [1] = target: Man(a1-6)Man(b1-4)GlcNAc(b1-4)GlcNAc
# Summary of the method: (§1)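 Glycan array binding is given as a within-array Z-score, which can be read as non-binding when negative. The arrays, 3228 of them, came from the Consortium for Functional Glycomics database and were retained only where the protein sequence was available. Z-scores were averaged across arrays of the same protein sequence at different concentrations or buffers and across linkers.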
# Man(b1-4)GlcNAc = target: Man(b1-4)GlcNAc
# Summary of the method: as §1
# [2] = target: Man(b1-4)Man(b1-4)Man(b1-4)Man
# Summary of the method: as §1
# [3] = target: Man(b1-4)Man(b1-4)Man(b1-4)Man(b1-4)Man
# Summary of the method: as §1
# [4] = target: Man(b1-4)Man(b1-4)Man(b1-4)Man(b1-4)Man(b1-4)Man
# Summary of the method: as §1
# [5] = target: Man6P(a1-3)Man(a1-3)Man(a1-3)Man(a1-2)Man
# Summary of the method: as §1
# Neu(a2-3)Gal(b1-4)Glc = target: Neu(a2-3)Gal(b1-4)Glc
# Summary of the method: as §1
# [6] = target: Neu(a2-3)Gal(b1-4)GlcNAc(b1-3)Gal(b1-4)[Fuc(a1-3)]GlcNAc(b1-3)Gal(b1-4)Glc
# Summary of the method: as §1
# [7] = target: Neu(a2-3)Gal(b1-4)GlcNAc6S(b1-3)Gal(b1-4)Glc
# Summary of the method: as §1
# [8] = target: Neu(a2-3)Gal(b1-4)[Fuc(a1-3)]GlcNAc(b1-3)Gal(b1-4)Glc
# Summary of the method: as §1
# [9] = target: Neu(a2-3)Gal(b1-4)[Fuc(a1-3)]GlcNAc6S(b1-3)Gal(b1-4)Glc
# Summary of the method: as §1
# [10] = target: Neu(a2-3)Gal6S(b1-4)[Fuc(a1-3)]GlcN(b1-3)Gal(b1-4)Glc
# Summary of the method: as §1
# Neu(a2-6)Gal(b1-4)Glc = target: Neu(a2-6)Gal(b1-4)Glc
# Summary of the method: as §1
# [11] = target: Neu4Ac5Ac(a2-3)Gal(b1-4)Glc
# Summary of the method: as §1
# [12] = target: Neu4Me5Ac(a2-3)Gal(b1-4)Glc
# Summary of the method: as §1
# Neu5Ac(a2-2)Glc = target: Neu5Ac(a2-2)Glc
# Summary of the method: as §1
# [13] = target: Neu5Ac(a2-3)4dGal(b1-4)[Fuc(a1-3)]GlcNAc(b1-3)Gal
# Summary of the method: as §1
# [14] = target: Neu5Ac(a2-3)6dGal(b1-4)[Fuc(a1-3)]GlcNAc(b1-3)Gal
# Summary of the method: as §1
# Neu5Ac(a2-3)Gal = target: Neu5Ac(a2-3)Gal
# Summary of the method: as §1
# [15] = target: Neu5Ac(a2-3)Gal(b1-3)6dGalNAc
# Summary of the method: as §1
# [16] = target: Neu5Ac(a2-3)Gal(b1-3)GalNAc
# Summary of the method: as §1
# [17] = target: Neu5Ac(a2-3)Gal(b1-3)GalNAc(b1-4)[Neu5Ac(a2-3)]Gal(b1-4)Glc
# Summary of the method: as §1
# [18] = target: Neu5Ac(a2-3)Gal(b1-3)GalNAc(b1-4)[Neu5Ac(a2-8)Neu5Ac(a2-3)]Gal(b1-4)Glc
# Summary of the method: as §1
# [19] = target: Neu5Ac(a2-3)Gal(b1-3)GalNAc6S
# Summary of the method: as §1
# [20] = target: Neu5Ac(a2-3)Gal(b1-3)GalNAc6S(b1-4)Gal(b1-4)Glc
# Summary of the method: as §1
# [21] = target: Neu5Ac(a2-3)Gal(b1-3)GlcNAc
# Summary of the method: as §1
# [22] = target: Neu5Ac(a2-3)Gal(b1-3)GlcNAc(b1-3)Gal(b1-4)Glc
# Summary of the method: as §1
# [23] = target: Neu5Ac(a2-3)Gal(b1-3)GlcNAc(b1-3)[Fuc(a1-3)[Gal(b1-4)]GlcNAc(b1-6)]Gal(b1-4)Glc
# Summary of the method: as §1
# [24] = target: Neu5Ac(a2-3)Gal(b1-3)[Fuc(a1-3)]GlcN(b1-3)Gal(b1-4)Glc
# Summary of the method: as §1
# [25] = target: Neu5Ac(a2-3)Gal(b1-3)[Fuc(a1-4)]GlcNAc
# Summary of the method: as §1
# [26] = target: Neu5Ac(a2-3)Gal(b1-3)[Fuc(a1-4)]GlcNAc(b1-3)Gal(b1-4)Glc
# Summary of the method: as §1
# [27] = target: Neu5Ac(a2-3)Gal(b1-3)[Neu5Ac(a2-6)]GalNAc
# Summary of the method: as §1
# [28] = target: Neu5Ac(a2-3)Gal(b1-3)[Neu5Ac(a2-6)]GalNAc(b1-4)Gal(b1-4)Glc
# Summary of the method: as §1
# [29] = target: Neu5Ac(a2-3)Gal(b1-3)[Neu5Ac(a2-6)]GlcNAc(b1-3)Gal(b1-4)Glc
# Summary of the method: as §1
# Neu5Ac(a2-3)Gal(b1-4)Glc = target: Neu5Ac(a2-3)Gal(b1-4)Glc
# Summary of the method: as §1
# [30] = target: Neu5Ac(a2-3)Gal(b1-4)GlcNAc
# Summary of the method: as §1
# [31] = target: Neu5Ac(a2-3)Gal(b1-4)GlcNAc(b1-2)Man(a1-3)[Neu5Ac(a2-3)Gal(b1-4)GlcNAc(b1-2)Man(a1-6)]Man(b1-4)GlcNAc(b1-4)[Fuc(a1-6)]GlcNAc
# Summary of the method: as §1
# [32] = target: Neu5Ac(a2-3)Gal(b1-4)GlcNAc(b1-3)Gal(b1-4)Glc
# Summary of the method: as §1
# [33] = target: Neu5Ac(a2-3)Gal(b1-4)GlcNAc(b1-6)GalNAc(a1-3)Gal(b1-4)Glc
# Summary of the method: as §1
# [34] = target: Neu5Ac(a2-3)Gal(b1-4)GlcNAc6S(b1-3)Gal6S(b1-3)GlcNAc6S
# Summary of the method: as §1
# [35] = target: Neu5Ac(a2-3)Gal(b1-4)[3dFuc(a1-3)]GlcNAc(b1-3)Gal
# Summary of the method: as §1
# [36] = target: Neu5Ac(a2-3)Gal(b1-4)[4dFuc(a1-3)]GlcNAc(b1-3)Gal
# Summary of the method: as §1
# [37] = target: Neu5Ac(a2-3)Gal(b1-4)[6dTal(a1-3)]GlcNAc(b1-3)Gal
# Summary of the method: as §1
# [38] = target: Neu5Ac(a2-3)Gal(b1-4)[Fuc(a1-3)]Glc
# Summary of the method: as §1
# [39] = target: Neu5Ac(a2-3)Gal(b1-4)[Fuc(a1-3)]GlcNAc
# Summary of the method: as §1
binder,measurement,setting,value
B1,glycan array binding signal (z-score),[1],0.162
same,glycan array binding signal (z-score),Man(b1-4)GlcNAc,-0.415
same,glycan array binding signal (z-score),[2],-0.328
same,glycan array binding signal (z-score),[3],-0.328
same,glycan array binding signal (z-score),[4],-0.328
same,glycan array binding signal (z-score),[5],1.46
same,glycan array binding signal (z-score),Neu(a2-3)Gal(b1-4)Glc,-0.225
same,glycan array binding signal (z-score),[6],-0.328
same,glycan array binding signal (z-score),[7],-0.261
same,glycan array binding signal (z-score),[8],-0.328
same,glycan array binding signal (z-score),[9],-0.275
same,glycan array binding signal (z-score),[10],-0.328
same,glycan array binding signal (z-score),Neu(a2-6)Gal(b1-4)Glc,-0.182
same,glycan array binding signal (z-score),[11],-0.253
same,glycan array binding signal (z-score),[12],-0.328
same,glycan array binding signal (z-score),Neu5Ac(a2-2)Glc,-0.264
same,glycan array binding signal (z-score),[13],-0.328
same,glycan array binding signal (z-score),[14],-0.328
same,glycan array binding signal (z-score),Neu5Ac(a2-3)Gal,-0.328
same,glycan array binding signal (z-score),[15],-0.32
same,glycan array binding signal (z-score),[16],-0.328
same,glycan array binding signal (z-score),[17],-0.328
same,glycan array binding signal (z-score),[18],-0.328
same,glycan array binding signal (z-score),[19],-0.328
same,glycan array binding signal (z-score),[20],-0.328
same,glycan array binding signal (z-score),[21],-0.207
same,glycan array binding signal (z-score),[22],-0.328
same,glycan array binding signal (z-score),[23],-0.328
same,glycan array binding signal (z-score),[24],-0.328
same,glycan array binding signal (z-score),[25],-0.319
same,glycan array binding signal (z-score),[26],-0.328
same,glycan array binding signal (z-score),[27],-0.325
same,glycan array binding signal (z-score),[28],-0.257
same,glycan array binding signal (z-score),[29],-0.328
same,glycan array binding signal (z-score),Neu5Ac(a2-3)Gal(b1-4)Glc,-0.276
same,glycan array binding signal (z-score),[30],-0.317
same,glycan array binding signal (z-score),[31],-0.42
same,glycan array binding signal (z-score),[32],-0.315
same,glycan array binding signal (z-score),[33],-0.328
same,glycan array binding signal (z-score),[34],-0.328
same,glycan array binding signal (z-score),[35],-0.328
same,glycan array binding signal (z-score),[36],-0.328
same,glycan array binding signal (z-score),[37],-0.328
same,glycan array binding signal (z-score),[38],-0.328
same,glycan array binding signal (z-score),[39],-0.328

# From the supplement of paper PMC8728848
